# Experimental data taken from the RNAGym collection of RNA variant scans (doi:10.1073/pnas.2313332121).
# This sample is rich in variants without activity.
# B1: TPR 5TU (parent)
# chain: GGAUCUUCUCGAUCUAACAAAAAAGACAAAUCUGCCACAAAGCUUGAGAGCAUCUUCGGAUGCAGAGGCGGCAGCCUUCGGUGGCGCGAUAGCGCCAACGUUCUCAACUAUGACACGCAAAACGCGUGCUCCGUUGAAUGGAGUUUAUCAUG
# Variants of: B1
# Assay: polymerase ribozyme fitness, log enrichment relative to wild type (log ratio); higher = more active; in vitro selection for triplet polymerase activity
# Method in brief: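 A heterodimeric triplet polymerase ribozyme had each of its subunits mutagenized by PCR into a library, which was transcribed. One round of in vitro selection, done in triplicate, annealed each library with a biotinylated primer, its partner subunit and triplets, then incubated it frozen at −7 °C before gel excision of extended constructs, streptavidin-bead capture and RT-PCR. Fitness is the logarithm of genotype enrichment relative to wild-type enrichment, based on Illumina sequencing of inputs and outputs and inverse-variance-weighted replicate averages. A base-2 logarithm is used, and genotypes were kept only with ≥10 input reads and ≥1 read per output.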
row,Variant,polymerase ribozyme fitness (log ratio)
1,A20C A28G C57U G58C A73U U77G C93U A106G C116G,≤ -4.2
2,A20G A39G G50C C85A C93A C114G C125G,≤ -4.2
3,A20U A26U A52C C57G,≤ -4.2
4,A20U G48U U61G C85G,≤ -4.2
5,A20C A52U U77C C87U,≤ -4.2
6,A20U A47C,-0.824
7,A20C A26U C36U U56A C79A G92U G136U,≤ -4.2
8,A20G A29C C43G C63A G86A U90G C116A,≤ -4.2
9,A20C G42A G68A C93U,≤ -4.2
10,A20C A39U G42A A91U G133U,≤ -4.2
11,A20G A22U C93G,-4.09
12,A20U C87G A91U,≤ -4.2
13,A20G A29U C93A A97U U139A,≤ -4.2
14,A20G G25U U56G G86U U102A C131A,≤ -4.2
15,A20G A40U U77C,≤ -4.2
16,A20U C27U A40U G62A U77C C79G C87U C123U,≤ -4.2
17,A20C A30C A49C C93G C103G,≤ -4.2
18,A20C C27U C87U G92A U101A,-1.49
19,A20C G42C G50U G84A C99A,≤ -4.2
20,A20G A22U U78G C85U C93U G152C,≤ -4.2
21,A20G U53A,-1.01

row,Variant,polymerase ribozyme fitness (log ratio)
1,A20U A49U C57G C95U U102C A113C U148A,≤ -4.2
2,A20G U77A,≤ -4.2
3,A20G A21C A47C G84C A97U U144A,≤ -4.2
4,A20G A41U G62C A91G A97U G117A C129U G136U,≤ -4.2
5,A20G C32A A39U U134C A137C,≤ -4.2
6,A20G U56G G117C,-0.934
7,A20G U55A C63G G80C C96U,≤ -4.2
8,A20U C57U A60C A98G C116U G117U U134A,≤ -4.2
9,A20C G48A G50C C95U,≤ -4.2
10,A20U A37C U56A G88A U102G A122C U144A,≤ -4.2
11,A20C G83C C96G,-1.83
12,A20U C57U G59U G62U C76U C96G A147G,≤ -4.2
13,A20C U45G C54U C76A A91U C114U,≤ -4.2
14,A20G G84U A119U U139C,≤ -4.2
15,A20U G58C C85U A98U C129U U134C,-1.85
16,A20C A30G U53C G86A U139A A142C,≤ -4.2
17,A20G A37G A106G A138C,-3.84
18,A20C C54A C57U A66G U77G C87G C99U A106G C116A G136C,≤ -4.2
19,A20U A39G U102A A115G,≤ -4.2
20,A20U C51U U55G C57G A120C,-3.76
21,A20C A30C G100C U102G G143U U145G,≤ -4.2

row,Variant,polymerase ribozyme fitness (log ratio)
1,A20G A26U U31G A40G C125G U151C G152A,≤ -4.2
2,A20C C36A A60C G84A G152A,≤ -4.2
3,A20G U55G G92C C105U G143C,≤ -4.2
4,A20C G42C A47C G50C U82G A107U C116U A137G A138G,≤ -4.2
5,A20C U45G C51U C54U C69A C87U C96U U127C U139A,≤ -4.2
6,A20U C38U G100A G140U G143A,≤ -4.2
7,A20U C54G,-2.64
8,A20C A89C A91C A97G C105U,≤ -4.2
9,A20C A26U A41C A52C C105U G140C,≤ -4.2
10,A20U C96G,-0.585
11,A20C A26C C35U C75U U90A G92A C118A A122C,≤ -4.2
12,A20U A40C G94A A115U A119C,-3.89
13,A20G G48A A119C A121U G136U,-3.51
14,A20C C99G,-1.06
15,A20C A47G G48C G94C C95G,≤ -4.2
16,A20U A39C C85U C95U U102G A142G,≤ -4.2
17,A20G U33G U44A A91U C96G,≤ -4.2
18,A20U G50C A64U U111G C125A G152A,≤ -4.2
19,A20G A21C U45A U78A G126A,≤ -4.2
20,A20G A37U U55G U78G,≤ -4.2
21,A20C A29C G84A A150C,≤ -4.2

row,Variant,polymerase ribozyme fitness (log ratio)
1,A20U A22U G59A A66C C72G A89U C95A,≤ -4.2
2,A20C A29C A52G U104C,≤ -4.2
3,A20G A30C A66C U77A C87A A115C,≤ -4.2
4,A20G A40C A49C G50A G65C G68A C87U G124U,≤ -4.2
5,A20G A22C C93A,-3.38
6,A20C A60G G68A C75U A91C,≤ -4.2
7,A20U A24C C54U C63U G65U G84A C132G U148A,≤ -4.2
8,A20U A21U U31A A47C U55A A60G G62C A66C C72A A110C U145G,≤ -4.2
9,A20U G50C U78A C93A A110C U145C,≤ -4.2
10,A20U G50C U78A C93A A110C U145A,≤ -4.2
11,A20C A37C G83U G84A A122C U134C G141C,≤ -4.2
12,A20U G42C A64C G94C G126U,≤ -4.2
13,A20C A26C A30C U44G G50A A66C,≤ -4.2
14,A20C A24U G50C U56A C75U C76A G86A G88C C95A C108U U130C,≤ -4.2
15,A20C A37U G59C A60U G68C G86C C118U A142G,≤ -4.2
16,A20G C38U G81A C103A G152A,≤ -4.2
17,A20G A24U U111A A142U G143U,≤ -4.2
18,A20C A115U,-2.36
19,A20G C93U C108G,≤ -4.2
20,A20G U53A U56A G58A C69U C93U,-3.35
